From the supplement of paper PMC4166925
± gives the standard deviation of the averaged measurements. Over roughly 33,000 sequences, “E-score (dimensionless, -0.5 to 0.5)” has its median near -0.049; the highest 2% begin near 0.37. The list shows a part of the results.

Each sequence was assayed on T1, PmTbr T-box DNA-binding domain (GST fusion) (assay: PBM E-score of 8-mer (E-score (dimensionless, -0.5 to 0.5)); Tbr is Tbrain of the sea star Patiria miniata (Pm) or the sea urchin Strongylocentrotus purpuratus (Sp); higher = stronger binding preference; most listed sequences are background and not binding sites). Conditions: the construct has about 5 more residues each side.
T1 sequence: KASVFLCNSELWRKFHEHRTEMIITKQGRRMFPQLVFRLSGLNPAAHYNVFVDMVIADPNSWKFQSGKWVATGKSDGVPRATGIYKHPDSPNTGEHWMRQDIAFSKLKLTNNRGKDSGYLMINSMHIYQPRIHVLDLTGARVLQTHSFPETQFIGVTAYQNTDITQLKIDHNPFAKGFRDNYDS
In short: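 Using the Universal PBM Analysis Suite, every ungapped 8-mer received an enrichment E-score averaged over duplicate arrays. Probe intensities came from double-stranded Universal Agilent oligonucleotide arrays incubated with 200 nM GST-fused Tbr T-box DNA-binding domain in PBS (pH 7.5). That protein was expressed in BL21 E. coli at 20 °C and purified by glutathione affinity chromatography.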

Point of comparison: ATACTTCC, “PBM E-score of 8-mer” value 0.0697 ± 0.018. Against it:
- CTAGATCC — lower, -0.244 ± 0.068
- GTCGTCAC — higher, 0.3318 ± 0.0028
- ACGGTGAA — lower, -0.208 ± 0.055
- GCCTGTGA — higher, 0.107 ± 0.014
- CAAACTTA — within error, 0.0492 ± 0.088
- ATTTTGGG — lower, -0.18 ± 0.0029
- CACATACA — higher, 0.229 ± 0.011
- CACCACGG — higher, 0.176 ± 0.059
- AAGCTTAA — lower, -0.173 ± 0.054
- GCTCTGCA — lower, -0.0825 ± 0.061
- AACTACCA — lower, -0.113 ± 0.011
- GGTCGTCA — within error, 0.0911 ± 0.017
- CTAAACCC — lower, -0.0556 ± 0.0056
- TTCTCAAA — within error, -0.0529 ± 0.12
- CCAGTTTC — lower, -0.0634 ± 0.028
- CACCCAGG — higher, 0.237 ± 0.011
- TCCAAGAA — lower, -0.115 ± 0.065
- CCACGGAG — lower, -0.178 ± 0.036
- AAGCTAAG — lower, -0.14 ± 0.064
- CAGGGTCC — within error, 0.0802 ± 0.01
- CAGATTAC — lower, -0.101 ± 0.043
- ACGATGTA — lower, -0.149 ± 0.036
- CGATGATA — lower, -0.00192 ± 0.05
- CATAGCTC — lower, -0.231 ± 0.059
- CGAGCGTA — lower, -0.276 ± 0.045
- ACAGTGGA — lower, -0.0479 ± 0.036
- AAAGATCG — lower, -0.0344 ± 0.064
- CGTCTCAG — lower, -0.15 ± 0.0054
- CTTAATAC — within error, 0.0863 ± 0.013
- ACCTCTCC — within error, 0.0785 ± 0.026
- GAAGGGAA — lower, -0.0404 ± 0.0073
- AACTCGAG — lower, -0.00631 ± 0.0034
- GAATTTGA — lower, -0.119 ± 0.025
- TAAGACTA — lower, -0.217 ± 0.016
- GAGAATCC — within error, 0.0014 ± 0.086
- CGGAGAAC — lower, -0.132 ± 0.049
- CAGGGAAG — lower, -0.247 ± 0.0093
- TACGCTCA — lower, -0.092 ± 0.038
- GCGTCCAA — lower, -0.0381 ± 0.029
- GTGATAAA — higher, 0.339 ± 0.07
- CTTCAATA — lower, -0.203 ± 0.14
- TGGCGAAA — within error, 0.0871 ± 0.075
- TAGCACAA — higher, 0.177 ± 0.009
- GTACAGTA — within error, 0.0854 ± 0.013
- AACAGTGA — higher, 0.1 ± 0.0087
- CAGAAAGG — lower, -0.245 ± 0.016
- TTACGCAA — lower, -0.00426 ± 0.0092
- AGTCACAG — within error, 0.135 ± 0.054
- CCCCCGCA — lower, -0.247 ± 0.079
- CTGTGTTC — within error, 0.102 ± 0.027
- AACGCATA — lower, -0.0282 ± 0.0057
- CAATACCC — lower, -0.172 ± 0.013
- TCCGAAGA — lower, -0.368 ± 0.0082
- CGATGGCA — within error, 0.168 ± 0.081
- CGCAATAG — lower, 0.0322 ± 0.0079
- ACCGACGG — lower, -0.0988 ± 0.015
- AATTGTAA — lower, -0.204 ± 0.043
- ACAGGGAA — lower, -0.205 ± 0.015
- AGCCCAGC — lower, -0.155 ± 0.077
- AGCTAATC — lower, -0.00077 ± 0.0068
- TAGCCAGA — lower, -0.293 ± 0.014
- GTCCACGA — lower, -0.173 ± 0.066
- ACGCTCGC — higher, 0.122 ± 0.0073
- AGAGTCTG — lower, -0.329 ± 0.03
- GGAGCTAC — lower, -0.125 ± 0.022
- GTACTCGA — lower, -0.12 ± 0.059
- GAGATCTA — within error, -0.0254 ± 0.096
- CATATGAA — lower, -0.172 ± 0.081
- TGTTACAA — higher, 0.191 ± 0.035
- GCCCACCA — lower, -0.212 ± 0.02
- CCCAAGCG — lower, -0.096 ± 0.045
- AACTTGTA — within error, -0.0779 ± 0.15
- CTTTGGTA — lower, -0.0263 ± 0.029
- ATTAACAC — higher, 0.449 ± 0.0075
- AGGAACGG — within error, 0.0966 ± 0.02
- CTTAAAGA — lower, -0.108 ± 0.021
- CATAACAG — lower, -0.072 ± 0.021
- TAGACGAA — lower, -0.182 ± 0.015
- GAGTGTCA — higher, 0.436 ± 0.0041
- AGAGTGCA — within error, 0.0698 ± 0.0037
- AAGAACCC — lower, -0.192 ± 0.042
- ACCATAAA — within error, 0.0538 ± 0.038
- CCCAATAC — lower, -0.178 ± 0.025
- GGAGTGTA — lower, 0.0383 ± 0.0057
- ATTTACCC — lower, -0.00345 ± 0.037
- AAATGAAG — lower, -0.124 ± 0.053
- ACAAACCA — lower, -0.13 ± 0.032
- AACGCGCA — lower, -0.0545 ± 0.015
- ACTGCTGA — higher, 0.181 ± 0.035
- AGAATAAG — lower, -0.0436 ± 0.0079
- CCTGTAGA — lower, -0.104 ± 0.038
- GCCATCTA — lower, -0.0654 ± 0.0076
- AGATCAAA — lower, -0.189 ± 0.031
- ATACCCTG — lower, -0.154 ± 0.04
- CTGAGTAA — lower, -0.172 ± 0.0019
- ATAATAAC — within error, 0.077 ± 0.051
- ACTCCACG — higher, 0.162 ± 0.07
- CTAAGCCA — lower, -0.113 ± 0.031
- AAAAAATT — lower, -0.146 ± 0.14
- AGTCCCAG — lower, -0.177 ± 0.024
- GGGCCGCA — lower, -0.277 ± 0.082
- CCGTTAAC — higher, 0.122 ± 0.0013
- CTCCTTGA — lower, -0.226 ± 0.011
- AGTTGGAC — lower, -0.181 ± 0.0063
- ACGAGTAT — lower, -0.0506 ± 0.042
- ACCAAGCT — within error, 0.0259 ± 0.092
- CATGTTGG — lower, -0.109 ± 0.0048
- GGCAATCA — lower, -0.21 ± 0.0063
- CACCAGGG — within error, 0.0472 ± 0.096
- AAACGGAA — lower, -0.0365 ± 0.0041
- GCGGAGGA — lower, -0.0841 ± 0.0039
- CCTATGGA — lower, -0.166 ± 0.039
- ACGCGTGG — higher, 0.162 ± 0.071
- CCAGACGC — within error, -0.057 ± 0.12
- CAACTAAC — higher, 0.1498 ± 0.00054
- CCTGGTGC — higher, 0.244 ± 0.014
- TGCCCAAA — lower, -0.129 ± 0.032
- AACCTAAC — within error, 0.0221 ± 0.052
- AAGGTGGG — higher, 0.221 ± 0.026
- GGCATTTA — lower, 0.00349 ± 0.0029
- CCAGATAA — lower, -0.021 ± 0.033
- ACCCTGCG — higher, 0.2324 ± 0.00049
- AAGTGCCT — lower, -0.0671 ± 0.029
- ATGTGTAC — lower, -0.0302 ± 0.049
- AGCACTAC — lower, 0.022 ± 0.017
- ATGAGCTG — lower, -0.0111 ± 0.047
- ATAGCGCC — higher, 0.26087 ± 0.0002
- CAAGCAGA — lower, -0.157 ± 0.0024
- CAACCGGC — lower, -0.191 ± 0.091
- ATTAGCTA — within error, 0.0681 ± 0.014
- ATTCGCCC — lower, -0.0514 ± 0.013
- AGGCTTTG — lower, -0.186 ± 0.034
- CCGTGACA — higher, 0.299 ± 0.0035
- CGGGTGGC — higher, 0.129 ± 0.034
- GATCTGTA — lower, -0.135 ± 0.06
- AGGTCATG — lower, -0.0844 ± 0.015
- GTATCTGA — lower, -0.173 ± 0.076
- AGGTCAGA — lower, -0.172 ± 0.025
- TTAGTCAA — lower, -0.0842 ± 0.046
- ATGCTCGG — lower, 0.00834 ± 0.022
- CTCCCGGC — lower, -0.122 ± 0.055
- AAGTGGAT — lower, -0.0138 ± 0.035
- AAACGTCT — lower, -0.208 ± 0.056
- CGTTGTCA — higher, 0.347 ± 0.031
- CCGAGGCC — lower, -0.139 ± 0.043
- CAACTGTC — higher, 0.291 ± 0.0097
- GAATACTC — lower, -0.0525 ± 0.02
- ATACGAGA — lower, -0.185 ± 0.014
- ACGTGGGG — lower, -0.0498 ± 0.054
- GACTGGGC — lower, -0.259 ± 0.055
- GTCGATGA — within error, 0.111 ± 0.046
- CGATCTGC — within error, 0.0177 ± 0.039
- GCGAGGTA — higher, 0.103 ± 0.0088
- CGTTGAAG — within error, 0.0833 ± 0.0023
- AGTCAGCA — lower, -0.13 ± 0.051
- ACAGGGGA — lower, -0.0417 ± 0.069
- CCTTGTCC — lower, -0.0947 ± 0.035
- TACGTGGA — lower, -0.0875 ± 0.034
- CTCTGCTC — lower, -0.13866 ± 2.8e-05
- AGCTTAAT — lower, -0.16 ± 0.0074
- CCTCTAGA — lower, -0.197 ± 0.031
- ATACTTGC — higher, 0.149 ± 0.029
- GCGAGTAC — within error, 0.109 ± 0.05
- CCGCAAAA — within error, 0.0227 ± 0.073
- ATTAGACC — lower, -0.245 ± 0.018
- AGGACCCC — lower, -0.311 ± 0.086
- CGGGCCCA — lower, -0.334 ± 0.045
- CCGATTCA — lower, -0.0688 ± 0.006
- GTGGGAAA — higher, 0.269 ± 0.022
- CAACGACC — lower, -0.118 ± 0.069
- CTCACCCA — within error, 0.118 ± 0.055
